From PubChem BioAssay AID686979 (National Center for Advancing Translational Sciences (NCATS), 2013)
“And” between values parts separate entries of the source, which are not always exact repeats. Equal entries are not always repeated. Hit rate of the full screen: of about 420,000 compounds, about 50,000 (12%) were called active. Inconclusive means that the source gave no clear call. Such entries were picked first, then a sample of the others. Calls come from the whole dose curve; as a rule, active = well fitted inhibition curve with a large enough effect; inconclusive = small, poorly fitted or top-dose-only effect; inactive = flat fitted curve, though single readings scatter. Where the call is inconclusive, the potency comes from a doubtful curve fit.
% is set by controls: 0 for no effect and ±100 for the full control effect; potency is the fitted concentration of half-maximal effect; tags give direction and shape of the fitted curve.

Test: qHTS for Inhibitors of human tyrosyl-DNA phosphodiesterase 1 (TDP1): qHTS in cells in presence of CPT; note: nearly all actives have a fitted effect of over 55% in size
Details: chicken DT40 Tdp1-/-;hTDP1 cells + 20 nM CPT, ATP luminescence, 48 h; activity change, negative = growth inhibition: at 46.2 µM (top of the series) unless noted
Procedure, shortened: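 Chicken DT40 Tdp1-/- cells complemented with human TDP1, 400 cells/well, exposed to compounds plus 20 nM camptothecin for at least 48 h at 37 C; viability read as ATP content by CellTiter-Glo luminescence.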
In the case of Cc1ccc(-n2c(=S)[nH]c3ccc(C)cc3c2=O)cc1, the activity change, negative = growth inhibition is reported as inconclusive: -32.1% [inhibitor]. In the case of COc1ccc(NC(=O)CSc2nc(-c3ccco3)cc(C(F)(F)F)n2)cc1OC, the Potency is reported as active: 1.46 µM. With C[C@]12CCC(=O)CC1CCC1C2CC[C@]2(C)C(OC(=O)CCC(=O)O)CCC12 (stereo partly drawn) the “activity change, negative = growth inhibition” value was inactive: 16.8%. For CC(C)c1ccc(N2C(=O)NC(=O)/C(=C\c3cnc(-c4ccccc4)nc3)C2=O)cc1, the Potency was inconclusive: 29.1 µM [inhibitor, single point]. In the case of COc1ccc(C=C2C(=O)N(C)C(=O)N(C)C2=O)cc1CSc1ccccn1, the Potency is reported as inconclusive: 29.1 µM [inhibitor, single point]. In the case of COc1cc2c(cc1OC)[C@@H]1C(=O)c3ccc(OC)c(CC=C(C)C)c3OC1CO2 (stereo partly drawn), the Potency is reported as active: 2.91 µM. With N#Cc1ncc(N=Cc2ccc(N(CCCl)CCCl)cc2)s1 the Potency was active: 10.3 µM. For CNCC(O)c1cccc(OC(=O)c2ccccc2C)c1 (stereo not drawn), the “activity change, negative = growth inhibition” value was inactive: -15.4%. With COC(=O)C1=C(c2ccc(F)cc2OCc2ccccc2)C[C@@H]2CC[C@H]1N2C(=O)NCc1cccc(C(F)(F)F)c1 the Potency was inconclusive: 18.4 µM [inhibitor, single point]. With CCCCC1C(=O)NC(=O)N(C2CCCCC2)C1=O (stereo not drawn) the Potency was inconclusive: 33.5 µM [inhibitor, single point]. With C#C[C@@]1(O)CCC2C3CCC4=C/C(=N/OCC(=O)NC(C(=O)NC(CC(C)C)C(=O)O)C(C)C)CC[C@]4(C)C3CC[C@@]21C (stereo partly drawn) the “activity change, negative = growth inhibition” value was inactive: -10.4%. With C[C@]12CCC3C(CC[C@H]4CC(=O)CC[C@]34C)C1CCC2=O (stereo partly drawn) the Potency was inconclusive: 29.1 µM [inhibitor, single point]. In the case of Cc1ccc(-n2c(/C=C/c3ccc(Br)s3)nc3ccccc3c2=O)cc1, the Potency is reported as active: 23.1 µM. With CC(N)C(=O)OC(C)(C)Cc1ccc(Cl)cc1 (stereo not drawn) the Potency was “inactive and inconclusive: 29.1 µM [inhibitor, single point]”. For Oc1ccc(O)c2c1C1(Cl)C(Cl)=C(Cl)C2(Cl)C1(Cl)Cl, the Potency was active: 23.1 µM. For CC(=O)OC1CCC2(C)C3CCC4(C)C(OC(C)=O)CCC4C3C(C)C2(O)C1 (stereo not drawn), the Potency was inconclusive: 23.1 µM [inhibitor, single point]. With c1ccc(-c2ccc(-c3n(-c4ccccn4)c4ccccc4[n+]3-c3ccccn3)cc2)cc1 the Potency was active: 5.8 µM. With CCOP(=O)(Cc1ccc(C#N)o1)OCC the “activity change, negative = growth inhibition” value was inactive: 16.8%. In the case of COc1ccc2[nH]cc(C3=CCNCC3)c2c1, the Potency is reported as inconclusive: 18.8 µM [inhibitor, partial curve, poor fit] and inconclusive: 23.1 µM [inhibitor, partial curve]. For CCN(CCCl)c1cc(CN(C)C)cc(NC(=O)c2ccc(C(=O)Nc3cc(CN(C)C)cc(N(CC)CCCl)c3)cc2)c1, the Potency was active: 0.184 µM. For C(=C/c1ccccc1)/CN1CCN(CCOC(c2ccccc2)c2ccccc2)CC1, the Potency was active: 6.68 µM. With CN(C)c1ccc(C2C3C=CC(C3)C2(C#N)C(=O)O)c(Br)c1 (stereo not drawn) the “activity change, negative = growth inhibition” value was inactive: -2.42%. In the case of Cc1ncc(CN2CCCC(C(=O)c3sccc3C)C2)s1 (stereo not drawn), the Potency is reported as inconclusive: 32.6 µM [inhibitor, single point]. For O=C(Nc1cccc2ccccc12)c1nn(C23CC4CC(CC(C4)C2)C3)cc1Br, the Potency was active: 23.1 µM. For CSCCC(N=Cc1c(O)n(-c2ccc(F)cc2)c(=O)[nH]c1=O)C(=O)OC(C)(C)C (stereo not drawn), the “activity change, negative = growth inhibition” value was inactive: -3.93%. In the case of COc1cc(OC)c(OC)cc1CN1CCN(C(=O)COc2ccc3ccccc3c2)CC1, the Potency is reported as inconclusive: 29.1 µM [inhibitor, single point]. With CCOP(=O)(OCC)C(NC(=O)c1ccccc1)=C(Cl)Cl the “activity change, negative = growth inhibition” value was inactive: -27.6%. With NP(N)(=O)NC(=O)c1ccc(F)cc1 the Potency was inconclusive: 0.0033 µM [inhibitor, full curve, poor fit]. With COc1ccc(C(=O)CCNc2ccc(F)cc2)cc1 the Potency was inconclusive: 9.2 µM [inhibitor, partial curve]. In the case of COc1ccc2c(c1)CCc1c(C(=O)Nc3c(C)nn(Cc4ccccc4C)c3C)noc1-2, the Potency is reported as active: 23.1 µM. With COc1ccc(Cl)cc1NC(=O)CN1C(=O)CN=C(c2ccccc2)c2cc(Cl)ccc21 the Potency was inconclusive: 20.6 µM [inhibitor, single point]. With N[C@H](CP(=O)(O)O)C(=O)O the “activity change, negative = growth inhibition” value was inactive: 21.1%. With Fc1ccc2c(c1)nnn2C1CCN(Cc2nnnn2CCc2ccccc2)CC1 the Potency was inconclusive: 29.1 µM [inhibitor, single point]. With CCN(CC)CCOc1ccccc1C(=O)CCc1ccccc1 the Potency was inconclusive: 21.1 µM [inhibitor, single point]. With C[C@]12CC[C@H]3[C@@H](C[C@H](F)C4=CC(=O)CC[C@@]43C)[C@@H]1CC[C@@H]2O the Potency was inconclusive: 18.4 µM [inhibitor, single point]. In the case of CCOC(=O)c1c(C)[nH]c(C)c1S(=O)(=O)N1CCC(C(=O)N2CCN(c3cccc(Cl)c3)CC2)CC1, the Potency is reported as inconclusive: 29.1 µM [inhibitor, single point]. In the case of CC1([N+](=O)[O-])COP(=O)(Nc2ccc(Cl)cc2)OC1 (stereo not drawn), the activity change, negative = growth inhibition is reported as inconclusive: -32.4% [inhibitor]. In the case of CCNC(=O)C1CCCN(Cc2cc(C(F)(F)F)ccc2Cl)CC1 (stereo not drawn), the Potency is reported as active: 25.9 µM. In the case of C=CCn1c(O)c(C(CC)=Nc2cc(OC)ccc2OC)c(=O)[nH]c1=O, the Potency is reported as inconclusive: 20.6 µM [inhibitor, single point]. In the case of CNCCCN1c2ccccc2CCc2ccccc21, the Potency is reported as inconclusive: 11.4 µM [inhibitor, single point] and inconclusive: 29.1 µM [inhibitor, single point]. In the case of O=C(CN1CCCC1=O)Nc1ccccc1, the “activity change, negative = growth inhibition” value is reported as inactive: -5.87%. For CC(C)c1ccc(C(O)P(=O)(OCc2ccccc2)c2ccc(N(C)C)cc2)cc1 (stereo not drawn), the Potency was inconclusive: 16.4 µM [inhibitor, single point]. In the case of CC/C=C/CC(=O)N[C@@H](c1ccccc1)[C@@H](O)C(=O)O[C@H]1C[C@@]2(O)[C@@H](OC(=O)c3ccccc3)C3[C@](C)(C(=O)[C@H](OC(C)=O)C(=C1C)C2(C)C)[C@@H](O)C[C@H]1OC[C@@]31OC(C)=O (stereo partly drawn), the Potency is reported as active: 0.0206 µM.
